Measured values published in the supplement of paper PMC10338343.
± gives the standard deviation. The list shows a part of the results, in another mix than the full data.

tested on: MIWI (PIWIL1) piRISC loaded with L1MC piRNA (30 nt); test: pre-steady-state target cleavage rate (min^-1); MIWI and MILI are mouse PIWI proteins and EfPiwi is from a freshwater sponge; tags in brackets are library labels; higher = faster piRNA-guided slicing of the target; conditions: guide: L1MC piRNA 5'p-UAACUAAAUACUAUGCAAGCUGUAGGUCCU; auxiliary factor: none (no GTSF1)
Outline: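 Cleave-'n-Seq measured uncleaved targets by sequencing after a transcribed, DNA-blocked target RNA library […] was mixed with 1 nM active affinity-purified piRISC holding one synthetic guide, with or without 500 nM GTSF1 partner protein, at 33 °C in HEPES–potassium acetate buffer for 0–8 or 0–960 min. Counts were normalised to depth and to weakly complementary targets, three trials were pooled, and k3 was capped at 0.0001 min^-1. A burst-and-steady-state fit gave the pre-steady-state cleavage rate.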
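Note: 1 nM active piRISC with 0.1 nM target library at 33 °C single turnover.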

Sequence | pre-steady-state target cleavage rate
UCCACCUACAGCUUGCAUAGUUUAUAGUUA | 0.00715 ± 0.0029
UGGACCUACUGCUUGCAUAGUAUUUAGAAA | 0.0121 ± 0.0024
UCCACCAUGAGCUUGCAUAGUAUUUAGUAA | 0.0228 ± 0.0048
UGGUCCUACACCUUGCAUAGUAUUUAGUUA | 0.0532 ± 0.0087
UGGACCUACAGCUUGCAUAGUAUUUUCAAA [g6:g29:cont:t1A] | 0.00394 ± 0.0029
UCCUGGAACAGCUUGGAUAGUAUUUAGUAA | 0.0288 ± 0.0068
AGGAGGUACAGCUUGCAUAGUAUUUAGAAA | 0.0123 ± 0.0037
UCCUCCUAGAGCUUGCAUAGUAUUUAGUUA | 0.0328 ± 0.0048
UCCUGGAACAGCUAGCUUAGUAUUUAGUUA | 0.0118 ± 0.0029
UCCUGGAUCAGCUUGGAUAGUAAUUAGUUA | 0.0147 ± 0.0047
UCGACCUACAGCUUGCAUACUAUUUAGUAA | 0.0184 ± 0.0039
UCGACCUACAGCUUGGAUUGUAUUUAGUUA | 0.0143 ± 0.0034
UGGACCUACAGCUUGCAUUGUAUUUAGAUA | 0.0127 ± 0.0024
UCCUGGAACAGCUUGCAUACUAUAUAGUUA | 0.0106 ± 0.004
UCGAGCUACAGCUUGCAUAGUAUUUACAAA | 0.00354 ± 0.0025
UCGACCUACAGCAUGCAUAGUAUUUUGUUA | 0.017 ± 0.0042
UCCUCCUUCAGCUUGCAUAGUAUUAAGUUA | 0.0131 ± 0.0028
UCCUCCUACAGCUUGCUUAGUAUUUACUUA | 0.0155 ± 0.003
AGGACCAACAGCUUGCUUAGUAUUUAGUUA | 0.0459 ± 0.0084
UCCUCCUACAGCGUGCAUAGUAUUUAGUUA | 0.0379 ± 0.0072

Sequence | pre-steady-state target cleavage rate
UCCUGGAACAGCUUGCAAAGUAAUUAGUUA | 0.0139 ± 0.0055
UCCUGGAUGUGCUUGGAUAGUAUAUAGUUA | 0.0106 ± 0.0049
UCCUGCUACAGCUGGCAUAGUAUUUAGUUA | 0.0172 ± 0.0037
UCGACCUACAGCUUGCAUAGUAUUUAGUUUA | 0.0631 ± 0.0099
UCCUGCUAAAGCUUGCAUAGUAUUUAGUUA | 0.0111 ± 0.0018
UCCUGGAUGUGCUUGCAUAGUUAUUAGUUA | 0.00708 ± 0.0028
UCCUGGAUGAGCUUGCAUAGUAGUUUAGUUA | 0.00894 ± 0.0031
UCCUCCAACUGCUUGCAUAGUAUUUAGUUA | 0.0455 ± 0.0077
UCCUGCUUGAGCUUGCAUAGUAUUUAGUUA | 0.0427 ± 0.0082
UCCUCCUACACGUUGCAUAGUAUUUAGUUA | 0.0129 ± 0.0021
UCCUGGAUGUGCUUGCAUAGUAUUUGAGUUA | 0.0219 ± 0.0046
UCCUGGAUGUGCUUGCAUACUAUUUAGUUA | 0.0191 ± 0.0037
AGGACCAACAGCUUGCAUAGAAUUUAGUUA | 0.0373 ± 0.0099
UCCUGCUACAGCUUGGCAUAGUAUUUAGUUA | 0.00705 ± 0.0022
UCCUGGAUCACCUUGCAUAGUAUUUUGUUA | 0.00453 ± 0.002
UCCUGGAUCACCUUGCAUAGUAUUAAGUUA | 0.00474 ± 0.0029
UCCUGGUACAGCUUGCAUAGUAUUUACUAA | 0.00303 ± 0.0025
UCCUGGAACAGCUUGCAUAGUUUUUAGUAA | 0.0332 ± 0.01
UCCUGGAUCUGCUUGCAUAGUAUUAAGUUA | 0.0106 ± 0.0034
UCCUGGAUGUCCUUGCAUAGUAUUUGAGUUA | 0.00342 ± 0.0027
